Several values for one entry are separate records, joined by “and”; a condition that tells them apart may be missing. Equal values may be shown once. The whole screen tested about 110,000 compounds, of which about 230 (0.21%) showed an effect of 50% or more. This is one part of the list.
biological target: DPAP1 (Plasmodium falciparum, UniProt Q8IIJ9); experiment: primary screen, percent inhibition; read by cleavage of a fluorogenic dipeptide substrate; higher = more effect of the substance; design: species or system P. falciparum D10 trophozoite lysates; single well
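Also: 30 min substrate incubation versus DMSO and 10 µM JCP410 controls.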

Chain of DPAP1 (Q8IIJ9 whole entry, looked up): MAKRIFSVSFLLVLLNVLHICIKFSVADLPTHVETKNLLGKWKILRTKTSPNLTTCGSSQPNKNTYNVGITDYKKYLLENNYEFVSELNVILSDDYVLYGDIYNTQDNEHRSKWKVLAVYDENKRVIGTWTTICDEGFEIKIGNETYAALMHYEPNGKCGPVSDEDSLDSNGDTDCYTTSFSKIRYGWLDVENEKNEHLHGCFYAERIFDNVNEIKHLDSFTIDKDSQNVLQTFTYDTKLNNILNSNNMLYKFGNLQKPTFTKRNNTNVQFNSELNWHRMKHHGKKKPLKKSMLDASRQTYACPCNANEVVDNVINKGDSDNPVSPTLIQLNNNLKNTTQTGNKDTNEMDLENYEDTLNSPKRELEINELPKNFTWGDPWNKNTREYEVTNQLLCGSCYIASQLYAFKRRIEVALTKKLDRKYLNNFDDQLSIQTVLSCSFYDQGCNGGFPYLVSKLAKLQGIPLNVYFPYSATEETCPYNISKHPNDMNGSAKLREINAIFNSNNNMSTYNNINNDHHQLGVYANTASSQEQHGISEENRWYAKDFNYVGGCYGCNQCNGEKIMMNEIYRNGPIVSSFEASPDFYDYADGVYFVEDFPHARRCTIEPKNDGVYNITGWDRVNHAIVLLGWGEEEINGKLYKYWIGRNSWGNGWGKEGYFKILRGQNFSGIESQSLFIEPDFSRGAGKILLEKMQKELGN

Row | Structure (SMILES) | % Inhibition @ 10 uM
1 | CCC[C@@H](/C=C/S(=O)(=O)c1ccccc1)NC(=O)[C@H](Cc1c(F)cccc1F)NC(=O)c1ccc(-c2ccccc2Cl)cc1 | 2.87%
2 | COc1ccc2[nH]c3c(=O)n(Cc4ccc(C(=O)NCc5cccnc5)cc4)c(=S)[nH]c3c2c1 | 2.74%
3 | CCOc1cc(CO)cc(Br)c1OCc1ccc(C(=O)O)cc1 | 1.7%
4 | Cc1nn(CC(=O)NCc2cccnc2)c(C)c1Cl | 0.883%
5 | CCOc1cccc(N2C(=O)CC(N3CCCCC3)C2=O)c1 (stereo not drawn) | 0.35%
6 | CCOC(=O)c1[nH]c(O)nc1CSc1nc(C)cc(C)n1 | 12.3%
7 | COc1ccccc1-c1cc(C(=O)NCc2ccccn2)c2ccccc2n1 | 0.144%
8 | COc1ccc(/C=C\C(=O)Nc2c3c(nn2-c2ccc(C)cc2)CSC3)cc1OC | 10.1%
9 | Cc1ccc(OCC(=O)Nc2cnn(Cc3ccccc3)c2)cc1 | -3.05%
10 | Clc1cccc(CN2CCN(C/C=C/c3ccccc3)CC2)c1Cl | 0.605%
11 | O=C(Nc1cccc2ccccc12)C1CC1(c1ccccc1)c1ccccc1 (stereo not drawn) | 1.24%
12 | CC(=O)C1=C(C)NC(SCc2ccccc2)=C(C#N)C1c1ccccc1 (stereo not drawn) | 3.06%
13 | CCCCOc1ccc(S(=O)(=O)NCc2ccco2)cc1 | 4.1%
14 | CC(C)C[C@H](NS(=O)(=O)c1ccccc1F)C(=O)NCC#N | -4.72%
15 | O=C(CNC(=S)N(Cc1ccccc1)Cc1ccccc1F)NCc1ccccc1 | -0.733%
16 | Cc1ccccc1N1CCN(Cc2ccc(F)cc2F)CC1 | 1.63%
17 | Cc1sc2c(c1C)c(=O)n(Cc1ccccc1)c(=O)n2CC(=O)NCCC1=CCCCC1 | 15.1%
18 | Cc1cccc(CCNC(=O)c2ccc(CNc3c(N4CCC(C)CC4)c(=O)c3=O)cc2)c1 | 16.4%
19 | N#Cc1cc2c(N)c(C(=O)c3ccc(Br)cc3)sc2nc1N | 2.7%
20 | NS(=O)(=O)c1ccc(CCNC(=O)c2cc3c(Cl)nc4ccccc4c3s2)cc1 | -3.37%

Row | Structure (SMILES) | % Inhibition @ 10 uM
21 | N#CCNC(=O)C(CC1CCCCC1)C(=O)NCC#N | -0.214%
22 | O=C(N[C@H](/C=C/S(=O)(=O)c1ccccc1)CCc1ccccc1)[C@H](CS(=O)(=O)Cc1ccccc1OC(F)F)NC(=O)N1CCOCC1 | -6.98%
23 | Cc1nn(-c2ccc(F)cc2)c(-n2cccc2)c1C(=O)NCCC(C)C | -6.49%
24 | CCC(C)NC(=O)C1CCN(c2cc(C)nc3c(-c4ccc(Cl)cc4)c(C)nn23)CC1 (stereo not drawn) | -3.7%
25 | O=C1NC(=O)N(c2cccc3ccccc23)C(=O)/C1=C\c1ccccc1 | -4.23%
26 | O=C(c1ccc(S(=O)(=O)c2ccccc2)cc1)N1CCCCCC1 | -0.597%
27 | CCCNC(=O)c1ccc2c(c1)sc1nc(-c3ccc(C)cc3C)cn12 | -5.42%
28 | O=C(NCCc1nc2ccccc2n1Cc1ccccc1Cl)c1ccco1 | 2.02%
29 | COc1ccccc1CNC(=O)C1CCN(c2nnc(N3CCCC3=O)s2)CC1 | 5.42%
30 | COc1ccc(CNC(=O)CCN2C(=S)NC(C)(C)CC2C)cc1 (stereo not drawn) | -4.23%
31 | CC1CCCC(NS(=O)(=O)c2ccc(CN3C(=O)c4cccnc4C3=O)cc2)C1C (stereo not drawn) | 4.79%
32 | CCN(CC)C(=O)Cn1cc(C(=O)C(F)(F)F)c2ccc(C(=O)OC)cc21 | 0.64%
33 | O=C(CN1CCN(c2ccccc2)CC1)Nc1cc(C(F)(F)F)cc(C(F)(F)F)c1 | 5.51%
34 | c1ccc(CN2CCN(c3ncnc4scc(-c5ccccc5)c34)CC2)cc1 | 4.99%
35 | COc1ccc(/C=C2\SC(=O)N(CCOc3ccc(F)cc3)C2=O)c(OC)c1 | -1.28%
36 | Cc1cc(C)c(S(=O)(=O)Nc2ccc(O)c(Cl)c2)c(C)c1 | -13.4%
37 | O=c1ccc2cc(S(=O)(=O)N3CCC(Cc4ccccc4)CC3)ccc2o1 | -3.07%
38 | CCOC(=O)N1CCC(N2CCN(CCO)CC2)CC1 | -3.6%
39 | Cc1c(C(=O)NC(C)C)oc2ccc3c(c12)C(=O)CC(C)(c1ccc(Cl)cc1)O3 (stereo not drawn) | -2.17%
40 | Cc1oc2ncn3nc(-c4cc(-c5ccc(F)cc5)[nH]n4)nc3c2c1C | 12%

Row | Structure (SMILES) | % Inhibition @ 10 uM
41 | CCOC(=O)c1cnn(-c2cccc(Cl)c2)c1C1CCNCC1 | -2.83%
42 | O=C1/C(=C/c2ccccc2)N=C(N2CCOCC2)N1c1cccc(Cl)c1 | -7.11%
43 | COc1cc(/C=C2/NC(=O)NC2=O)cc(Cl)c1OCc1cccc(C)c1 | -1.25%
44 | COc1ccc(Cn2c(C(=O)O)c(CNCCC3=CCCCC3)c3ccccc32)cc1 | 6.94%
45 | COc1cc(C)c(S(=O)(=O)n2c(C)nc3ccccc32)cc1C | 2.22%
46 | N#C/C(=C\c1ccc2ccccc2c1)c1nc(-c2ccc(-c3ccccc3)cc2)cs1 | -7.55%
47 | COc1ccc(N2CCN(C(=O)CN3C(=O)c4ccccc4S3(=O)=O)CC2)cc1 | 8.19%
48 | Cc1cc2nc(CSc3nc[nH]n3)cc(=O)n2o1 | -5.28%
49 | COc1cccc(CN2C(=O)c3ccccc3C(C(=O)O)C2c2ccsc2)c1 (stereo not drawn) | -4.9%
50 | O=C(COc1ccc(Cl)cc1)Nc1ccc(S(=O)(=O)Nc2nccs2)cc1 | 1.87%
51 | O=C(COc1ccccc1Cl)Nc1ccc(NC(=O)COc2ccccc2Cl)cc1 | 0.909%
52 | O=C(/C=C/c1ccccc1Cl)Nc1cccc(C(F)(F)F)c1 | -1.62%
53 | CC1CCN(C(=O)CNS(=O)(=O)c2ccc(Cl)cc2)CC1 | -7.45%
54 | NC12CC3CC(C1)CC(CC(=O)O)(C3)C2 | 3.18% and 4.08%
55 | CN(C1CCCC1)C1CCN(C(=O)CNC(=O)/C=C/c2ccc(F)cc2)CC1 | -4.71%
56 | Cc1ccc(C)c(-n2c(CNC(=O)c3cccc(F)c3)nnc2SCC(=O)Nc2nccs2)c1 | 73.7%
57 | O=C(CCn1ccc2cc(S(=O)(=O)N3CCCC3)ccc21)NCCc1ccc(Cl)cc1 | 0.58%
58 | Cc1cccc(NC(=O)c2ccc([N+](=O)[O-])cc2Cl)c1 | -2.6%
59 | CC(=O)c1ccc[n+](C(=O)Cc2ccccc2)c1 | -1.6%
60 | CN1CCCN(Cc2cccc(Cl)c2Cl)CC1 | 0.847%
